# The other results are listed elsewhere or left out.
# B1: Cohesin-mDC-ASGPR (Macaca mulatta) (protein)
# chain: LDITSHHHHHHDDLDAVRIKVDTVNAKPGDTVRIPVRFSGIPSKGIANCDFVYSYDPNVLEIIEIEPGDIIVDPNPDKSFDTAVYPDRKIIVFLFAEDSGTGAYAITKDGVFATIVAKVKEGAPNGLSVIKFVEVGGFANNDLVEQKTQFFDGGVNVGDTTEPATPTTPVTTPTTTDDLDAASSQNSKFQRDLVTLRTDFSNFTSNTVAEIQALTSQGSSVEEMIASLKAEVEVIKQEQQAVHSEMLLRVQRLMQDLNKLTCQVATLKNNASTERTCCPVNWVEHQDSCYWFSRSGMPWAEAEKHCQLENAHLVVINSREEQNFVQEHLSFAYTWMGLSDREGAWKWVDGTDYETGFQNWKPGQPDDWQGHGLGGGEDCAHFHPDGRWNDDVCQRPYYWVCEAGLTQASQESH
# Legend:
# Assay in all cases: glycan array binding signal (z-score within array); higher = stronger binding
# Details in all cases: glycan notation: IUPAC condensed, linker removed
# [1] = target: Gal(b1-4)Glc
# How it was run: (§1)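 The binding signal is a Z-score computed within each array. Data were drawn from 3228 arrays in the Consortium for Functional Glycomics database, restricted to those with a known protein sequence. Scores were averaged over arrays of the same protein sequence at different concentrations or buffers, and over linkers, and negative values can be taken as non-binding.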
# [2] = target: Gal(b1-4)Glc6S
# How it was run: as §1
# [3] = target: Gal(b1-4)GlcNAc
# How it was run: as §1
# [4] = target: Gal(b1-4)GlcNAc(a1-6)Gal(b1-4)GlcNAc
# How it was run: as §1
# [5] = target: Gal(b1-4)GlcNAc(b1-2)Man
# How it was run: as §1
# [6] = target: Gal(b1-4)GlcNAc(b1-2)Man(a1-3)Man(b1-4)GlcNAc(b1-4)GlcNAc
# How it was run: as §1
# [7] = target: Gal(b1-4)GlcNAc(b1-2)Man(a1-3)[Gal(b1-4)GlcNAc(b1-2)Man(a1-6)]Man(b1-4)GlcNAc(b1-4)GlcNAc
# How it was run: as §1
# [8] = target: Gal(b1-4)GlcNAc(b1-2)Man(a1-3)[Gal(b1-4)GlcNAc(b1-2)Man(a1-6)]Man(b1-4)GlcNAc(b1-4)[Fuc(a1-6)]GlcNAc
# How it was run: as §1
# [9] = target: Gal(b1-4)GlcNAc(b1-2)Man(a1-3)[Gal(b1-4)GlcNAc(b1-2)Man(a1-6)][Gal(b1-4)GlcNAc(b1-4)]Man(b1-4)GlcNAc(b1-4)[Fuc(a1-6)]GlcNAc
# How it was run: as §1
# [10] = target: Gal(b1-4)GlcNAc(b1-2)Man(a1-3)[Gal(b1-4)GlcNAc(b1-2)Man(a1-6)][GlcNAc(b1-4)]Man(b1-4)GlcNAc(b1-4)[Fuc(a1-6)]GlcNAc
# How it was run: as §1
# [11] = target: Gal(b1-4)GlcNAc(b1-2)Man(a1-3)[GlcNAc(b1-2)Man(a1-6)]Man(b1-4)GlcNAc(b1-4)GlcNAc
# How it was run: as §1
# [12] = target: Gal(b1-4)GlcNAc(b1-2)Man(a1-3)[GlcNAc(b1-4)][Gal(b1-4)GlcNAc(b1-2)Man(a1-6)]Man(b1-4)GlcNAc(b1-4)GlcNAc
# How it was run: as §1
# [13] = target: Gal(b1-4)GlcNAc(b1-2)Man(a1-3)[Man(a1-6)]Man(b1-4)GlcNAc(b1-4)GlcNAc
# How it was run: as §1
# [14] = target: Gal(b1-4)GlcNAc(b1-2)Man(a1-6)Man(b1-4)GlcNAc(b1-4)GlcNAc
# How it was run: as §1
# [15] = target: Gal(b1-4)GlcNAc(b1-2)Man(a1-6)[GlcNAc(b1-2)Man(a1-3)]Man(b1-4)GlcNAc(b1-4)GlcNAc
# How it was run: as §1
# [16] = target: Gal(b1-4)GlcNAc(b1-2)Man(a1-6)[Man(a1-3)]Man(b1-4)GlcNAc(b1-4)GlcNAc
# How it was run: as §1
# [17] = target: Gal(b1-4)GlcNAc(b1-2)[Gal(b1-4)GlcNAc(b1-4)]Man(a1-3)[Gal(b1-4)GlcNAc(b1-2)Man(a1-6)]Man(b1-4)GlcNAc(b1-4)GlcNAc
# How it was run: as §1
# [18] = target: Gal(b1-4)GlcNAc(b1-2)[Gal(b1-4)GlcNAc(b1-4)]Man(a1-3)[Gal(b1-4)GlcNAc(b1-2)[Gal(b1-4)GlcNAc(b1-6)]Man(a1-6)]Man(b1-4)GlcNAc(b1-4)GlcNAc
# How it was run: as §1
# [19] = target: Gal(b1-4)GlcNAc(b1-2)[Gal(b1-4)GlcNAc(b1-4)]Man(a1-3)[GlcNAc(b1-4)][Gal(b1-4)GlcNAc(b1-2)Man(a1-6)]Man(b1-4)GlcNAc(b1-4)GlcNAc
# How it was run: as §1
# [20] = target: Gal(b1-4)GlcNAc(b1-2)[Gal(b1-4)GlcNAc(b1-4)]Man(a1-3)[GlcNAc(b1-4)][Gal(b1-4)GlcNAc(b1-2)[Gal(b1-4)GlcNAc(b1-6)]Man(a1-6)]Man(b1-4)GlcNAc(b1-4)GlcNAc
# How it was run: as §1
# [21] = target: Gal(b1-4)GlcNAc(b1-2)[Gal(b1-4)GlcNAc(b1-6)]Man(a1-6)[Gal(b1-4)GlcNAc(b1-2)Man(a1-3)]Man(b1-4)GlcNAc(b1-4)GlcNAc
# How it was run: as §1
# [22] = target: Gal(b1-4)GlcNAc(b1-2)[Gal(b1-4)GlcNAc(b1-6)]Man(a1-6)[Gal(b1-4)GlcNAc(b1-2)Man(a1-3)]Man(b1-4)GlcNAc(b1-4)[Fuc(a1-6)]GlcNAc
# How it was run: as §1
# [23] = target: Gal(b1-4)GlcNAc(b1-2)[Gal(b1-4)GlcNAc(b1-6)]Man(a1-6)[GlcNAc(b1-4)][Gal(b1-4)GlcNAc(b1-2)Man(a1-3)]Man(b1-4)GlcNAc(b1-4)GlcNAc
# How it was run: as §1
# [24] = target: Gal(b1-4)GlcNAc(b1-2)[Gal(b1-4)GlcNAc(b1-6)]Man(a1-6)[GlcNAc(b1-4)][Gal(b1-4)GlcNAc(b1-2)[Gal(b1-4)GlcNAc(b1-4)]Man(a1-3)]Man(b1-4)GlcNAc(b1-4)[Fuc(a1-6)]GlcNAc
# How it was run: as §1
# [25] = target: Gal(b1-4)GlcNAc(b1-3)Gal(b1-3)GalNAc
# How it was run: as §1
# [26] = target: Gal(b1-4)GlcNAc(b1-3)Gal(b1-3)GlcNAc
# How it was run: as §1
# [27] = target: Gal(b1-4)GlcNAc(b1-3)Gal(b1-4)Glc
# How it was run: as §1
# [28] = target: Gal(b1-4)GlcNAc(b1-3)Gal(b1-4)GlcNAc
# How it was run: as §1
# [29] = target: Gal(b1-4)GlcNAc(b1-3)Gal(b1-4)GlcNAc(b1-2)Man(a1-3)[Gal(b1-4)GlcNAc(b1-3)Gal(b1-4)GlcNAc(b1-2)Man(a1-6)]Man(b1-4)GlcNAc(b1-4)GlcNAc
# How it was run: as §1
# [30] = target: Gal(b1-4)GlcNAc(b1-3)Gal(b1-4)GlcNAc(b1-2)Man(a1-3)[Gal(b1-4)GlcNAc(b1-3)Gal(b1-4)GlcNAc(b1-2)Man(a1-6)]Man(b1-4)GlcNAc(b1-4)[Fuc(a1-6)]GlcNAc
# How it was run: as §1
# [31] = target: Gal(b1-4)GlcNAc(b1-3)Gal(b1-4)GlcNAc(b1-2)[Gal(b1-4)GlcNAc(b1-3)Gal(b1-4)GlcNAc(b1-6)]Man(a1-6)[Gal(b1-4)GlcNAc(b1-3)Gal(b1-4)GlcNAc(b1-2)Man(a1-3)]Man(b1-4)GlcNAc(b1-4)GlcNAc
# How it was run: as §1
# [32] = target: Gal(b1-4)GlcNAc(b1-3)Gal(b1-4)GlcNAc(b1-2)[Gal(b1-4)GlcNAc(b1-3)Gal(b1-4)GlcNAc(b1-6)]Man(a1-6)[Gal(b1-4)GlcNAc(b1-3)Gal(b1-4)GlcNAc(b1-2)Man(a1-3)]Man(b1-4)GlcNAc(b1-4)[Fuc(a1-6)]GlcNAc
# How it was run: as §1
# [33] = target: Gal(b1-4)GlcNAc(b1-3)Gal(b1-4)GlcNAc(b1-3)Gal(b1-4)GlcNAc
# How it was run: as §1
# [34] = target: Gal(b1-4)GlcNAc(b1-3)Gal(b1-4)GlcNAc(b1-3)Gal(b1-4)GlcNAc(b1-2)Man(a1-3)[Gal(b1-4)GlcNAc(b1-3)Gal(b1-4)GlcNAc(b1-3)Gal(b1-4)GlcNAc(b1-2)Man(a1-6)]Man(b1-4)GlcNAc(b1-4)GlcNAc
# How it was run: as §1
# [35] = target: Gal(b1-4)GlcNAc(b1-3)Gal(b1-4)GlcNAc(b1-3)Gal(b1-4)GlcNAc(b1-2)Man(a1-3)[Gal(b1-4)GlcNAc(b1-3)Gal(b1-4)GlcNAc(b1-3)Gal(b1-4)GlcNAc(b1-2)Man(a1-6)]Man(b1-4)GlcNAc(b1-4)[Fuc(a1-6)]GlcNAc
# How it was run: as §1
# [36] = target: Gal(b1-4)GlcNAc(b1-3)Gal(b1-4)GlcNAc(b1-3)Gal(b1-4)GlcNAc(b1-2)[Gal(b1-4)GlcNAc(b1-3)Gal(b1-4)GlcNAc(b1-3)Gal(b1-4)GlcNAc(b1-6)]Man(a1-6)[Gal(b1-4)GlcNAc(b1-3)Gal(b1-4)GlcNAc(b1-3)Gal(b1-4)GlcNAc(b1-2)Man(a1-3)]Man(b1-4)GlcNAc(b1-4)[Fuc(a1-6)]GlcNAc
# How it was run: as §1
# [37] = target: Gal(b1-4)GlcNAc(b1-3)Gal(b1-4)GlcNAc(b1-3)Gal(b1-4)GlcNAc(b1-3)Gal(b1-4)GlcNAc(b1-2)Man(a1-3)[Gal(b1-4)GlcNAc(b1-3)Gal(b1-4)GlcNAc(b1-3)Gal(b1-4)GlcNAc(b1-3)Gal(b1-4)GlcNAc(b1-2)Man(a1-6)]Man(b1-4)GlcNAc(b1-4)GlcNAc
# How it was run: as §1
binder,measurement,setting,value
B1,glycan array binding signal (z-score),[1],-0.379
same,glycan array binding signal (z-score),[2],-0.419
same,glycan array binding signal (z-score),[3],-0.405
same,glycan array binding signal (z-score),[4],-0.378
same,glycan array binding signal (z-score),[5],-0.012
same,glycan array binding signal (z-score),[6],-0.397
same,glycan array binding signal (z-score),[7],-0.425
same,glycan array binding signal (z-score),[8],-0.425
same,glycan array binding signal (z-score),[9],-0.393
same,glycan array binding signal (z-score),[10],-0.422
same,glycan array binding signal (z-score),[11],-0.411
same,glycan array binding signal (z-score),[12],-0.434
same,glycan array binding signal (z-score),[13],0.009
same,glycan array binding signal (z-score),[14],-0.406
same,glycan array binding signal (z-score),[15],-0.344
same,glycan array binding signal (z-score),[16],-0.429
same,glycan array binding signal (z-score),[17],-0.431
same,glycan array binding signal (z-score),[18],-0.427
same,glycan array binding signal (z-score),[19],-0.397
same,glycan array binding signal (z-score),[20],-0.406
same,glycan array binding signal (z-score),[21],-0.394
same,glycan array binding signal (z-score),[22],-0.418
same,glycan array binding signal (z-score),[23],-0.427
same,glycan array binding signal (z-score),[24],-0.411
same,glycan array binding signal (z-score),[25],-0.404
same,glycan array binding signal (z-score),[26],-0.424
same,glycan array binding signal (z-score),[27],-0.394
same,glycan array binding signal (z-score),[28],-0.405
same,glycan array binding signal (z-score),[29],-0.12
same,glycan array binding signal (z-score),[30],-0.328
same,glycan array binding signal (z-score),[31],0.544
same,glycan array binding signal (z-score),[32],-0.266
same,glycan array binding signal (z-score),[33],-0.408
same,glycan array binding signal (z-score),[34],-0.343
same,glycan array binding signal (z-score),[35],-0.325
same,glycan array binding signal (z-score),[36],-0.325
same,glycan array binding signal (z-score),[37],-0.384
